In article PMC3812274 (Biochemistry, 2013):

Tests used:
[1] = target: N-terminal SNARE motif of human SNAP-25B (residues 11-82) (human, UniProt P60880-1 11-82); assay: assembly of an SDS-resistant complex
[2] = target: C-terminal SNARE motif of human SNAP-25B (residues 141-203) (human, UniProt P60880-1 part only); assay: assembly of an SDS-resistant complex

binding result [1]: binds
binding result [2]: binds
B1: SNARE motif of rat syntaxin-1A ([…]) (domain or fragment)
chain: not shown
